Inconclusive means that the source gave no clear call. Such entries were picked first, then a sample of the others. Potencies of inconclusive entries are left out as doubtful fits. Calls of active or inactive are those of the source. The call rests on the fitted dose curve; in most records, active means well fitted inhibition curve with a large enough effect; inconclusive means small, poorly fitted or top-dose-only effect; inactive means flat fitted curve, though single readings scatter.
Experiment: BET inhibitor-based combinations targeting novel dependencies in MECOM-rearranged (r) AML: AML-191 cell line (AID 2202236; further: nearly all actives have a fitted effect of over 35% in size;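 on viability (% of control): plate controls were vehicle wells for no effect and wells without cells for full effect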)
Details: AML-191 viability, CellTiter-Glo luminescence, 48 h; series mostly up to 46 µM; viability (% of control): at the top concentration
Text: Ecotropic viral insertion site 1 (EVI1) is located on chromosome 3q26.2 as part of the MECOM (MDS and EVI1 complex) locus. Under normal hematopoiesis, EVI1 is a regulator of hematopoietic stem cell maintenance and self-renewal and EVI1 levels decrease as the cells differentiate. In approximately 5-10% of de novo acute myeloid leukemia (AML) EVI1 is aberrantly expressed, including Chromosomal inv(3)(q21;q26.2) or t(3;3)(q21;q26.2) alterations (MECOM-r) that account for about 50% of AML with EVI1 overexpression 31. AMLs with high levels of EVI1 have a poor prognosis and an overall survival time averaging between 10-14 months. EVI1 overexpression confers resistance in leukemia cells, highlighting the need to develop new targeted therapies for EVI1 overexpressing AMLs.
Here, we performed an unbiased chemical drug screening by evaluating the single agent activity of a collection of 2,480 oncology-focused, approved and investigational drugs (NCATS Mechanism Interrogation Plates, MIPE v5.0) against a panel of seven AML cell lines. These included four MECOM-r cell-lines (AML-191, AML-194, UCSD-AML1 and HNT-34) and three non-MECOM-r AMLs (MV4-11, OCI-AML3 and SET-2). Exploiting the mechanistic redundancy built in the library, we identified target-level sensitivities in MECOM-r AML cells and relative activity as compared to other AML subtypes.
A collection of 2480 mechanistically annotated dugs (MIPE v5.0) was used to screen four 3q26.2 rearranged AML cell lines and three non-3q26.2 rearranged AML cell lines. This library purposely exploits redundancy by including multiple inhibitors of key onco-targets, while simultaneously encompassing mechanistic diversity, targeting more than 800 distinct mechanisms of action. Briefly, cells were seeded in 5 uL of growth media using a Multidrop Combi dispenser into 1536 well white polystyrene tissue culture treated plates (Corning) at a density of 500cells/well. For each cell-line, for each of the 2480 drugs in MIPE v5.0 library, an 11-point dose curve was generated via a 1536 pin-tool. Plates were incubated for 48 hr at standard incubator conditions, covered by a stainless steel gasketed lid to prevent evaporation. Cell viability was determined by luminescence based, Cell Titer Glo assay (Promega). In detail, 3 uL of Cell Titer Glo were added to each well and plates were incubated at room temperature for 15 min with a stainless-steel lid in place. Luminescence readings were taken using a Viewlux (PerkinElmer) with a 2 s exposure time per plate. Compound dose-response curves were normalized to DMSO and empty well controls on each plate. Quantitative drug activity data from dose-response curves was determined utilizing area Under the Curve (AUC) and Z-transformed AUC (Z-AUC, a mean-centering transformation applied to each individual cell-line screened).
Potency means the concentration at half of the fitted maximal effect; tags describe the fitted curve by direction and shape.

| SMILES | Potency | viability (% of control) |
| --- | --- | --- |
| C=CCNC1=C2CC(C)CC(OC)C(O)C(C)/C=C(\C)C(OC(N)=O)C(OC)/C=C/C=C(\C)C(=O)NC(=CC1=O)C2=O (stereo not given) | inconclusive [inhibitor, full curve] | – |
| CCOc1ccc(Cc2cc([C@@H]3O[C@H](CO)[C@@H](O)[C@H](O)[C@H]3O)ccc2Cl)cc1 | inconclusive [inhibitor, single point] | – |
| CCCCCCOC(=O)NC(=N)c1ccc(NCc2nc3cc(C(=O)N(CCC(=O)OCC)c4ccccn4)ccc3n2C)cc1 | inconclusive [inhibitor, partial curve] | – |
| COc1cc2c(Oc3ccc4[nH]c(C)cc4c3F)ccnc2cc1OCC1(N)CC1 | active: 7.42 µM | – |
| O=c1cc(-c2cccc3c2Sc2ccccc2S3)oc(N2CCOCC2)c1 | inconclusive [inhibitor, partial curve] | – |
| C=C1C(=O)[C@@]23C(CC[C@@H]1[C@H]2O)[C@@]12CO[C@]3(O)[C@@H](O)[C@@H]1C(C)(C)CC[C@@H]2O (stereo not given in full) | active: 8.33 µM | – |
| C[C@@H](C(=O)Nc1ccc(Cl)cc1)C1CCC(c2ccnc3ccc(F)cc23)CC1 (stereo not given in full) | inconclusive [inhibitor, partial curve, poor fit] | – |
| C=CC(=O)N1CCC[C@@H](n2nc(-c3ccc(Oc4ccccc4)cc3)c3c(N)ncnc32)C1 | inconclusive [inhibitor, single point] | – |
| Cc1ccc(Nc2nnc(Cc3ccncc3)c3ccccc23)cc1Br | inconclusive [inhibitor, partial curve] | – |
| C[C@@H]1CCNC(=O)c2cc3ccc(C(=O)Nc4nc5ccccc5n4CCCN(C)C)cc3n21 | inconclusive [inhibitor, partial curve] | – |
| Cc1ccc(NC(=O)c2ccc(CN3CC[C@H](N(C)C)C3)c(C(F)(F)F)c2)cc1Nc1nccc(-c2cncnc2)n1 | inconclusive [inhibitor, partial curve] | – |
| CCOc1cc(C(=O)Nc2ccc(Cl)c(-c3nc4ccccc4[nH]3)c2)cc(OCC)c1OCC | inconclusive [inhibitor, single point] | – |
| CC1=C(/C=C/C(C)=C/C=C/C(C)=C/C(=O)Nc2ccc(O)cc2)C(C)(C)CCC1 | inconclusive [inhibitor, partial curve, poor fit] | – |
| C=CC(=O)N1CC(N2CCN(C(=O)CNc3cc(C4(C)CC4)c(Cl)cc3O)CC2)C1 | – | inactive: 99.3% |
| CN(C)CCOc1ccc(/C(=C(/CCCl)c2ccccc2)c2ccccc2)cc1 | inconclusive [inhibitor, partial curve] | – |
| Nc1ccc(C(=O)c2cc3c(ccc4ccccc43)[nH]2)cc1 | active: 1.52 µM | – |
| N[C@@H]1CONC1=O | – | inactive: 96.4% |
| CC1=CC(=O)c2ccccc2C1=O | inconclusive [inhibitor, partial curve] | – |
| NC(=O)Nc1cc(-c2ccc(CN3CCOCC3)cc2)sc1C(N)=O | active: 2.63 µM | – |
| CNC[C@H](O)c1cccc(O)c1 | inconclusive [inhibitor, full curve, poor fit] | – |

| SMILES | Potency | viability (% of control) |
| --- | --- | --- |
| CCC[C@H](NC(=O)/C(C#N)=C/c1cccc(Br)n1)c1ccccc1 | active: 3.72 µM | – |
| CNC(=O)c1ccc2c(C(=Nc3cccc(CN(C)C)c3)c3ccccc3)c(O)[nH]c2c1 | inconclusive [inhibitor, partial curve] | – |
| COc1ccc(-n2nc(C(N)=O)c3c2C(=O)N(c2ccc(N4CCCCC4=O)cc2)CC3)cc1 | – | inactive: 84.8% |
| CC1(C)CCC(C)(C)c2cc(NC(=O)c3ccc(C(=O)O)cc3)ccc21 | active: 0.0021 µM | – |
| CCNC(=O)c1noc(-c2cc(C(C)C)c(O)cc2O)c1-c1ccc(CN2CCOCC2)cc1 | inconclusive [inhibitor, full curve] | – |
| Nc1c2c(nc3ccccc13)CCCC2 | – | inactive: 87.7% |
| Clc1ccc(CCC(Cn2ccnc2)Sc2c(Cl)cccc2Cl)cc1 (stereo not given) | – | inactive: 84.6% |
| C=C1C[C@H]2C=Nc3cc(OCCCOc4cc5c(cc4OC)C(=O)N4CC(=C)C[C@H]4C=N5)c(OC)cc3C(=O)N2C1 | inconclusive [inhibitor, full curve, poor fit] | – |
| O=C1C(Cl)=C(NCCN2CCOCC2)C(=O)c2ncccc21 | active: 7.42 µM | – |
| NS(=O)(=O)c1ccc(NC(=S)N2CCN(C/C=C/c3ccccc3)CC2)cc1 | inconclusive [inhibitor, partial curve, poor fit] | – |
| Cc1c(C(=O)Nc2ccc(Oc3ccnc4[nH]cc(-c5ccccc5)c34)c(F)c2)c(=O)n(-c2ccc(F)cc2)n1C | active: 0.59 µM | – |
| Cc1c(O)cccc1C(=O)NC(CSc1ccccc1)C(O)CN1CC2CCCCC2CC1C(=O)NC(C)(C)C (stereo not given) | inconclusive [inhibitor, single point] | – |
| CN(C)CCCN1c2ccccc2CCc2ccc(Cl)cc21 | inconclusive [inhibitor, partial curve] | – |
| COCCOC(=O)C1=C(C)NC2=C(C(=O)CC(c3ccccc3OC)C2)C1c1cccc(O)c1 (stereo not given) | active: 14.8 µM | – |
| CN[C@H](CC(C)C)C(=O)N[C@H]1C(=O)N[C@@H](CC(N)=O)C(=O)N[C@H]2C(=O)N[C@H]3C(=O)N[C@H](C(=O)N[C@H](C(=O)O)c4cc(O)cc(O)c4-c4cc3ccc4O)[C@H](O)c3ccc(c(Cl)c3)Oc3cc2cc(c3O[C@@H]2O[C@H](CO)[C@@H](O)[C@H](O)[C@H]2O[C@H]2C[C@](C)(N)[C@H](O)[C@H](C)O2)Oc2ccc(cc2Cl)[C@H]1O | – | inactive: 113% [at 15.6 µM] |
| CC1(N)CCN(c2cnc(-c3cccc(Cl)c3Cl)c(N)n2)CC1 | – | inactive: 85.4% [at 15.6 µM] |
| Cc1nc(-c2ccc(OCC(C)C)c(C#N)c2)sc1C(=O)O | – | inactive: 99.6% |
| Cc1cc(C(=O)Nc2cc(Nc3ccc4c(/C=C/c5ccccn5)n[nH]c4c3)ccc2F)n(C)n1 | active: 16.6 µM | – |
| CCC[C@H](N[C@H]1CCc2cc(F)cc(F)c2C1)C(=O)Nc1cn(C(C)(C)CNCC(C)(C)C)cn1 | inconclusive [inhibitor, partial curve, poor fit] | – |
| CN[C@@H](C)C(=O)N[C@@H]1C(=O)N(Cc2c(C)ccc3ccccc23)c2ccc(C#N)cc2N(C(C)=O)[C@H]1C | inconclusive [inhibitor, single point] | – |

Reference: PubChem BioAssay (NCATS)
